Measurements as given in PubChem BioAssay (Tox21).
Where “and” joins values, the source holds several entries; their conditions need not be identical. Equal entries are not always repeated. Inconclusive means that the source gave no clear call. Such entries were picked first, then a sample of the others. Potencies of inconclusive entries are doubtful fits and often do not repeat. A structure can be active in one record and inactive in another. Calls of active or inactive are those of the source. Unless noted, calls come from the whole dose curve.

Key:
[1] = qHTS assay for small molecule agonists of the p53 signaling pathway (AID 651631); conditions: HCT-116 p53RE-bla reporter, beta-lactamase FRET ratio, 16 h; activation: at 73.3 µM (top of the series) unless noted; note: nearly all actives have a fitted effect of over 15% in size
Summary of the method: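 Testing took place in human colorectal HCT-116 cells with stable p53RE-driven beta-lactamase. After 16 h of compound exposure at 37 °C, a FRET substrate was added and fluorescence recorded 2 h later.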

[2] = qHTS assay for small molecule agonists of the p53 signaling pathway - cell viability (AID 651633); note: nearly all actives have a fitted effect of over 30% in size; for activity change, negative = cytotoxicity: % is set by controls: 0 for no effect and ±100 for the full control effect
Summary of the method: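 p53RE-bla cells, seeded at 4,000 per well and rested 5 h at 37 C/5% CO2, received compounds in DMSO for 16 h at 37 C. CellTiter-Glo was then added, and luminescence was read after 30 min at room temperature to gauge cytotoxicity.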

[3] = qHTS assay for small molecule disruptors of the mitochondrial membrane potential (AID 720635; active = well fitted curve in the direction sought with a large enough effect in the repeat runs; inconclusive = weak or mixed curves; inactive = no such curve, though single readings can be large; an effect the other way counts as inactive or inconclusive; for ratio activity, negative = MMP loss: % is set by controls: 0 for no effect and ±100 for the full control effect); conditions: HepG2 mitochondrial membrane potential, Mito-MPS dye ratio; ratio activity, negative = MMP loss: at 83.2 µM (top of the series) unless noted
Summary of the method: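 HepG2 cells (2,000/well) attached overnight at 37C, then took compound for 1 hr at 37C, 5% CO2. Mito-MPS dye was added for 30 min; fluorescence was read at 490/535 nm (monomers) and 540/590 nm (aggregates).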

[4] = qHTS assay for identifying genotoxic compounds that show differential cytotoxicity against isogenic chicken DT40 cell lines with known DNA damage response pathways - wild type cell line (AID 743012; active = well fitted curve in the direction sought with a large enough effect in the repeat runs; inconclusive = weak or mixed curves; inactive = no such curve, though single readings can be large; an effect the other way counts as inactive or inconclusive; note: nearly all actives have a fitted effect of over 60% in size; for activity change, negative = cytotoxicity: % is set by controls: 0 for no effect and ±100 for the full control effect); conditions: DT40 wild type chicken cells viability, CellTiter-Glo, 40 h; activity change, negative = cytotoxicity: at 68.4 µM (top of the series)
Summary of the method: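 Endpoint: CellTiter-Glo luminescence, 30 min RT. Cells: wild type DT40, 300/well. Exposure: compounds in DMSO, 40 h, 37 C/5% CO2, after ~0.5 h pre-incubation.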

[5] = qHTS assay for small molecules that induce genotoxicity in human embryonic kidney cells expressing luciferase-tagged ATAD5 - cell viability (AID 651634); note: nearly all actives have a fitted effect of over 25% in size
Summary of the method: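 15.5 hr compound or vehicle exposure of HEK293T cells expressing luciferase-tagged ATAD5 at 37C; live-cell protease activity is read by fluorescence after 30 min of CellTiter-Fluor.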

[6] = qHTS assay for small molecule disruptors of the mitochondrial membrane potential - cell viability (AID 720634); note: nearly all actives have a fitted effect of over 20% in size
Summary of the method: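 In this qHTS format, HepG2 cells plated overnight were pinned with compound, incubated 1 hr, and assayed for ATP luminescence with CellTiter-Glo after m-MPI dye addition.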

[7] = target: Glucocorticoid receptor (Homo sapiens) (UniProt P04150); assay: qHTS assay to identify small molecule antagonists of the glucocorticoid receptor (GR) signaling pathway (AID 720692; active = well fitted inhibition curve with a large enough effect in the signal ratio in the repeat runs, not every such curve was filed as active; inconclusive = weak or mixed curves, or effect the other way; inactive = no such curve, though single readings can be large or run the other way; the % refers to the signal ratio; for activity change, negative = inhibition: % is set by controls: 0 for no effect and ±100 for the full control effect); conditions: GR-bla HeLa, beta-lactamase FRET ratio, dexamethasone-stimulated, 18 h
Summary of the method: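 Tox21 10K library screened in concentration-response for blockade of dexamethasone (5 nM final)-induced GRE-bla reporter activity in HeLa cells; 18 h treatment, fluorescence read.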

[8] = qHTS assay to identify small molecule antagonists of the glucocorticoid receptor (GR) signaling pathway - cell viability counter screen (AID 720693; active = well fitted curve in the direction sought with a large enough effect in the repeat runs; inconclusive = weak or mixed curves; inactive = no such curve, though single readings can be large; an effect the other way counts as inactive or inconclusive; note: nearly all actives have a fitted effect of over 55% in size); conditions: GR-bla HeLa viability, CellTiter-Glo luminescence, 18 h, with 5 nM dexamethasone present; viability change, negative = cytotoxic: at 58.5 µM (top of the series)
[9] = target: Glucocorticoid receptor (Homo sapiens) (UniProt P04150); assay: qHTS assay to identify small molecule agonists of the glucocorticoid receptor (GR) signaling pathway (AID 720691; active = well fitted activation curve with a large enough effect in the signal ratio in the repeat runs, not every such curve was filed as active; inconclusive = weak or mixed curves, or effect the other way; inactive = no such curve, though single readings can be large or run the other way; the % refers to the signal ratio); conditions: GR-bla HeLa, beta-lactamase reporter ratio, 18 h; activation: at 62.4 µM (top of the series) unless noted
Summary of the method: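 Measures GR pathway activation through a GRE-beta-lactamase reporter stably integrated in HeLa cells, with 18 h compound treatment at 37 C and fluorescence detection using a FRET substrate.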

[10] = activity change, negative = inhibition: at 58.5 µM (top of the series) unless noted
Potency is the fitted concentration of half-maximal effect; tags give direction and shape of the fitted curve or compound fluorescence and quenching.

Chain of UniProt P04150 (P04150 whole entry, looked up): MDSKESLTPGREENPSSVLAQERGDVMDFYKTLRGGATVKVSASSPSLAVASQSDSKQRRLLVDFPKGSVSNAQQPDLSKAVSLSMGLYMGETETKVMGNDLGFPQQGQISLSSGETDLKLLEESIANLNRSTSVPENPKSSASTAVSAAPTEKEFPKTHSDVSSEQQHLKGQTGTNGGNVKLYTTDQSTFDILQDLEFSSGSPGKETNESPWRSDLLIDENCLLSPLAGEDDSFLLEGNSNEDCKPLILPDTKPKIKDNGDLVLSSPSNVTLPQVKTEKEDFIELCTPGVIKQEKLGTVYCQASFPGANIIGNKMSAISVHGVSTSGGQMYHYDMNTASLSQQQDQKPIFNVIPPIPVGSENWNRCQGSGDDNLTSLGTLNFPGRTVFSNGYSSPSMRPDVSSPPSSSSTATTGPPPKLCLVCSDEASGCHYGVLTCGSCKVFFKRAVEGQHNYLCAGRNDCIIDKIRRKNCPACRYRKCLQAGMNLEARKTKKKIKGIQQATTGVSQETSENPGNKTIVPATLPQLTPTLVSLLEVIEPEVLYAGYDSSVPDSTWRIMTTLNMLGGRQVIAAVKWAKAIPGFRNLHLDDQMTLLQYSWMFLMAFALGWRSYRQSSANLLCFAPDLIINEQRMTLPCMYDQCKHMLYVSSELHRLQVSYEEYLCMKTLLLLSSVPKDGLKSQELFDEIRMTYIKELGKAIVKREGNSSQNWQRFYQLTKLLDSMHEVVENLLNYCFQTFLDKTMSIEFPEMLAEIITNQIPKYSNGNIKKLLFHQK

Row | Compound | Potency [1] | Potency [2] | Potency [3] | Potency [4] | Potency [5] | Potency [6] | Potency [7, 10] | Potency [8] | activity change, negative = inhibition [7, 10] | Potency [9] | activity change, negative = inhibition ([7]; at 58.5 µM (top of the series))
1 | O=C1CCCCCCCCCCCCCC1 | inconclusive: 77 µM [falling, single point] | inactive | active: 48.6 µM | inactive |  |  |  |  |  |  | 
2 | CCN(CC)c1ccc(N)cc1 | inconclusive: 28.1 µM [falling, full curve] |  | active: 49.9 µM |  | inconclusive: 28.1 µM [falling, partial curve] | inconclusive: 35.3 µM [cytotoxic, partial curve, poor fit] | inconclusive: 63.3 µM [inhibitor, single point] | inconclusive: 63.3 µM [cytotoxic, single point] |  |  | 
3 | CN(C)CCCN1c2ccccc2CCc2ccc(Cl)cc21 | inconclusive: 5.31 µM [fluorescent, full curve, poor fit] and inconclusive: 77 µM [activator] | inconclusive: 68.6 µM [cytotoxic, single point] |  |  |  |  | inconclusive: 61.6 µM [inhibitor] |  | inconclusive: 15.7% |  | 
4 | CC1=C(/C=C/C(C)=C/C=C/C(C)=C\C=O)C(C)(C)CCC1 | inconclusive: 57.9 µM [cytotoxic, partial curve] | inconclusive: 64.9 µM [cytotoxic, single point] |  | active: 14.5 µM |  |  | inconclusive: 52 µM [cytotoxic] | inconclusive: 58.4 µM [cytotoxic, single point] |  | inconclusive: 58.4 µM [cytotoxic, single point] | 
5 | COc1ccc(CCN2CCC(Nc3nc4ccccc4n3Cc3ccc(F)cc3)CC2)cc1 | inconclusive: 26.6 µM [cytotoxic] and inconclusive: 12.5 µM [cytotoxic, full curve] |  | inconclusive: 8.41 µM [activator, partial curve] and inconclusive: 62.5 µM [inhibitor] |  | active: 26.6 µM and active: 44.2 µM | inconclusive: 21.1 µM [cytotoxic, partial curve, poor fit] and active: 49.6 µM | inconclusive: 19.9 µM [cytotoxic, full curve] |  | inconclusive: -37.5% | inconclusive: 30.1 µM [cytotoxic] and inconclusive: 9.99 µM [cytotoxic, full curve] | 
6 | C[C@@H](NCCCc1cccc(C(F)(F)F)c1)c1cccc2ccccc12 | inconclusive: 21.1 µM [cytotoxic, partial curve] |  | inconclusive: 9.87 µM [cytotoxic, partial curve] |  | active: 26.6 µM | active: 26.6 µM | inconclusive: 19 µM [cytotoxic, partial curve] | active: 13.4 µM |  | inconclusive: 15.1 µM [cytotoxic, partial curve] | 
7 | CC(C)(c1ccccc1)c1ccc(Nc2ccc(C(C)(C)c3ccccc3)cc2)cc1 | inconclusive: 54.4 µM [cytotoxic] and inconclusive: 54.5 µM [cytotoxic] | inactive | active: 21.7 µM and active: 27.3 µM |  |  |  | inconclusive: 38.9 µM [cytotoxic, partial curve] and inconclusive: 61.7 µM [cytotoxic] |  |  |  | 
8 | COc1cccc(-c2ccc(/C=C\CN3CCCCCC3)cc2Cl)c1 | inconclusive: 48.3 µM [falling, single point] | inconclusive: 60.9 µM [cytotoxic, partial curve, poor fit] | inconclusive: 8.6 µM [cytotoxic, partial curve, poor fit] | active: 3.05 µM |  |  | inconclusive: 54.7 µM [inhibitor] | inconclusive: 48.7 µM [cytotoxic, single point] |  | inconclusive: 54.7 µM [cytotoxic] | 
9 | CN(C)CCOc1ccc(/C(=C(/CCCl)c2ccccc2)c2ccccc2)cc1 | inconclusive: 33.5 µM [single point] and inconclusive: 57.2 µM [cytotoxic] | inconclusive: 29.8 µM [cytotoxic, single point] |  |  |  |  | inconclusive: 19 µM and inconclusive: 51.4 µM [cytotoxic, single point] | inconclusive: 51.4 µM [cytotoxic, single point] |  | inconclusive: 30.1 µM [cytotoxic] and inconclusive: 28.9 µM [cytotoxic, partial curve] | 
10 | CCCCCCCC/C=C\CCCCCCCC(=O)N(CCO)CCO | inconclusive: 2.72 µM [falling, single point] | inconclusive: 68.3 µM [cytotoxic, single point] | inconclusive: 38.4 µM [activator, partial curve] |  |  |  |  | active: 48.8 µM |  |  | 
11 | COC(=O)C1=C(C)NC(C)=C(C(=O)OCC(C)C)C1c1ccccc1[N+](=O)[O-] (stereo unspecified) | active: 26.6 µM and inconclusive: 61.1 µM [cytotoxic, single point] | inconclusive: 18.8 µM [cytotoxic, partial curve, poor fit] |  | active: 5.31 µM and active: 3.86 µM |  | inconclusive: 24.3 µM [cytotoxic, partial curve] | active: 24.5 µM | inconclusive: 54.9 µM [cytotoxic, single point] |  |  | 
12 | Cc1cc(Cc2cc(C)cc(C(C)(C)C)c2O)c(O)c(C(C)(C)C)c1 | active: 30.6 µM |  | active: 1.23 µM and active: 1.09 µM |  | active: 61.4 µM and active: 61.1 µM | inconclusive: 15.4 µM [cytotoxic, partial curve] and inconclusive: 27.3 µM [cytotoxic, partial curve] | inconclusive: 24.7 µM [cytotoxic, full curve] and inconclusive: 24.5 µM [cytotoxic, full curve] | active: 12.4 µM and active: 13.8 µM |  |  | 
13 | CCCCCCCC/C=C/CCCCCCCC1=NCCN1CCO | inconclusive: 30.6 µM [cytotoxic, partial curve] |  | active: 54.5 µM | active: 12.2 µM | inconclusive: 68.6 µM [falling, single point] | active: 54.5 µM | inconclusive: 54.9 µM [cytotoxic] | active: 49 µM |  | inconclusive: 61.6 µM [cytotoxic] | 
14 | O=c1n(CCO)c(=O)n(CCO)c(=O)n1CCO | inconclusive: 6.19 µM [falling, single point] | inconclusive: 69.4 µM [cytotoxic, partial curve, poor fit] | inconclusive: 492 nM [activator, single point] and inactive | inconclusive: 68.6 µM [cytotoxic, single point] |  |  |  |  |  |  | 
15 | Clc1ccc(C(Cn2ccnc2)OCc2c(Cl)cccc2Cl)c(Cl)c1 (stereo unspecified) | inconclusive: 11.4 µM [falling, partial curve] | inconclusive: 12.7 µM [cytotoxic, partial curve] |  |  |  |  |  |  | inconclusive: -16.5% [at 27 µM] | inconclusive: 11.5 µM [single point] | 
16 | CCCOc1sc(C(=O)N2CCC(c3cc(CN)ccc3F)CC2)c(C)c1Br | inconclusive: 62.8 µM [single point] | inconclusive: 62.8 µM [cytotoxic, single point] | inconclusive: 6.28 µM [activator, full curve] | active: 14.1 µM |  |  | inconclusive: 56.5 µM [cytotoxic, single point] | inconclusive: 56.5 µM [cytotoxic, single point] |  | inconclusive: 28.3 µM [cytotoxic] | 
17 | CC1CC(OC(=O)c2ccccc2O)CC(C)(C)C1 (stereo unspecified) | inactive | inconclusive: 29.8 µM [cytotoxic, partial curve] and inconclusive: 53.9 µM [cytotoxic, partial curve, poor fit] |  | inconclusive: 34 µM [cytotoxic, partial curve, poor fit] |  |  |  |  | inconclusive: -19.2% |  | inactive: -13.7% and inactive: -27.7%
18 | CC(C)(c1cc(Br)c(O)c(Br)c1)c1cc(Br)c(O)c(Br)c1 | active: 48.4 µM and active: 41 µM |  | active: 4.84 µM and active: 7.67 µM and active: 1.83 µM |  | inconclusive: 54.3 µM [falling, partial curve, poor fit] | active: 60.9 µM and inconclusive: 64.9 µM [cytotoxic, single point] | inconclusive: 54.8 µM [cytotoxic, single point] and inconclusive: 61.5 µM [cytotoxic] and inconclusive: 52 µM [cytotoxic] | inconclusive: 54.8 µM [cytotoxic, single point] and inconclusive: 54.8 µM [cytotoxic] and inconclusive: 52 µM [cytotoxic] |  |  | 
19 | CC(C)CCCCCCc1ccc(O)cc1 | inconclusive: 29.8 µM [activator] and inconclusive: 44 µM [cytotoxic, partial curve] and inconclusive: 61.1 µM [cytotoxic] | inconclusive: 33.5 µM [cytotoxic, single point] and inconclusive: 61.1 µM [cytotoxic, single point] |  |  |  | inconclusive: 23.7 µM [cytotoxic, partial curve] and active: 6.22 µM and active: 61.1 µM | inconclusive: 26.8 µM [cytotoxic, single point] and inconclusive: 35.3 µM [cytotoxic, partial curve] and inconclusive: 54.9 µM [cytotoxic] | inconclusive: 26.8 µM [cytotoxic, single point] and inconclusive: 61.6 µM [cytotoxic, single point] |  | inconclusive: 22.3 µM [cytotoxic] and inconclusive: 43.6 µM [cytotoxic] | 
